Measurements published in the supplement of paper PMC4166925.
± gives the standard deviation of the averaged measurements. Over roughly 33,000 sequences, “E-score (dimensionless, -0.5 to 0.5)” has its median near -0.046; the highest 2% begin near 0.36. This is one part of the list.

system: T1, SpTbr T-box DNA-binding domain (GST fusion); test: PBM E-score of 8-mer (E-score (dimensionless, -0.5 to 0.5)); Tbr is Tbrain of the sea star Patiria miniata (Pm) or the sea urchin Strongylocentrotus purpuratus (Sp); higher = stronger binding preference; most listed sequences are background and not binding sites; conditions: the construct has about 5 more residues each side
T1 sequence: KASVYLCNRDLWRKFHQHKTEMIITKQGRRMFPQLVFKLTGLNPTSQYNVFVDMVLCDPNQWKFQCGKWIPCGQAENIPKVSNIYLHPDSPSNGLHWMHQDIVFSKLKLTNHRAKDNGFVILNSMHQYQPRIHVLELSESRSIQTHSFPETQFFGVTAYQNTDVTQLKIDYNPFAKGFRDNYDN
Summary of the method: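 Primer extension turned Universal Agilent oligonucleotide arrays double-stranded. They were incubated with 200 nM protein in PBS (pH 7.5); the protein was a GST-fused Tbr T-box DNA-binding domain expressed in BL21 E. coli at 20 °C and purified on glutathione. Every ungapped 8-mer was scored from the scanned, quantified probe intensities, and the Universal PBM Analysis Suite gave each an enrichment E-score averaged over duplicate arrays.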

Sequence	PBM E-score of 8-mer
AGTCGTGG	0.0665 ± 0.034
GAACAAAC	-0.0729 ± 0.0068
ACAGTATG	0.1665 ± 0.00065
AGTCCACA	0.233 ± 0.043
CACTTCCA	0.284 ± 0.0076
AGCGCCTC	0.268 ± 0.0083
CGGGTTCA	0.0792 ± 0.0091
CATATAAC	-0.109 ± 0.055
ACCCCACT	0.0175 ± 0.038
AAATGTAT	-0.147 ± 0.011
GGTCTTCA	0.0227 ± 0.057
CAAGCCGA	-0.136 ± 0.019
AACATTAT	-0.103 ± 0.058
CAGATGTA	-0.0627 ± 0.057
AAGCACAG	-0.157 ± 0.05
AAAGCAAC	0.0509 ± 0.06
AACAGTCG	0.142 ± 0.021
GGGGATAA	-0.174 ± 0.0073
CCCTTCGC	0.157 ± 0.033
ACTCCGGG	-0.0806 ± 0.049
TCTAGCCA	-0.0859 ± 0.0019
GCCAAGTA	-0.0662 ± 0.052

Sequence	PBM E-score of 8-mer
CGCTACTA	0.0971 ± 0.009
ACATTGCG	0.028 ± 0.072
AACACCCA	0.293 ± 0.035
GCGCTGTA	0.206 ± 0.014
GCACGAAA	-0.0282 ± 0.018
ATTCGTGA	0.2108 ± 0.0015
GAGTGCCA	0.20475 ± 0.00018
ATAGAGAT	-0.108 ± 0.066
GCAGCCGA	-0.0632 ± 0.019
ATCATATC	-0.086 ± 0.0052
GACAATGA	0.176 ± 0.0013
ATCAACGA	0.051 ± 0.018
CAGGACAC	0.191 ± 0.037
TATAATCA	-0.107 ± 0.065
AACAACCG	-0.0688 ± 0.056
AAATATAT	-0.192 ± 0.054
TGCTGACA	0.231 ± 0.023
CGCAAAAA	0.15 ± 0.012
CAAGAATC	-0.115 ± 0.11
CCCTGCGG	-0.189 ± 0.04
AACACTCT	0.355 ± 0.011
ACAATGTC	0.0343 ± 0.011

Sequence	PBM E-score of 8-mer
AAAAGTGG	0.118 ± 0.11
CCAAATGC	-0.107 ± 0.051
AGTACTAT	-0.142 ± 0.062
ATTACTCA	0.109 ± 0.043
ACTATGCC	-0.0459 ± 0.048
TCGGGTCA	0.00268 ± 0.096
CGCTATAA	0.0809 ± 0.056
ATCCGCCG	-0.126 ± 0.097
AGTTGTTA	0.369 ± 0.04
AAGCGTGT	0.288 ± 0.012
AGCCAGTG	-0.21 ± 0.011
AGGAGCAT	-0.105 ± 0.046
AGTTAACC	-0.158 ± 0.0076
CGAGACGC	-0.103 ± 0.1
AATACATT	-0.143 ± 0.02
CGCATAGA	-0.0202 ± 0.12
AAACGCTT	-0.0215 ± 0.0094
TCTTAACA	0.214 ± 0.041
CACTTGAA	0.0803 ± 0.017
CCCGATGA	-0.0376 ± 0.018
TATGGCGA	0.0259 ± 0.038
ATAGAGAA	-0.203 ± 0.013

Sequence	PBM E-score of 8-mer
CAGTCAAA	-0.0968 ± 0.02
ACAGGCAC	0.0398 ± 0.048
CGTGACTA	0.0881 ± 0.032
CTAATCGA	-0.213 ± 0.025
AATACCGA	-0.119 ± 0.011
ACTCTGAA	-0.183 ± 0.0055
AGATAAGA	-0.137 ± 0.015
CTTACAGA	0.0336 ± 0.094
AGCGCAGC	-0.0867 ± 0.019
CAATGCAG	-0.25 ± 0.013
GGCGTTAC	0.326 ± 0.018
ACCTTAGG	-0.0722 ± 0.023
ACGTAGGC	-0.0247 ± 0.067
AGATACCG	-0.142 ± 0.046
CTTACATA	-0.196 ± 0.042
CAATCGTC	0.0322 ± 0.0016
ACGAAGGG	-0.227 ± 0.07
CCGTCACA	0.306 ± 0.039
TACTTTCA	0.0949 ± 0.061
AACCTATC	-0.225 ± 0.0065
